# Assay results reported in ChEMBL document CHEMBL4888484, “Replenishing the malaria drug discovery pipeline: Screening and hit evaluation of the MMV Hit Generation Library 1 (HGL1) against asexual blood stage Plasmodium falciparum ,using a nano luciferase reporter read-out” (2022).
# About 540 (0.36%) of roughly 150,000 compounds showed an effect of 50% or more. This is one part of the list.
# Test system: Plasmodium falciparum
# Assay: Primary screen in NF54 nanoGlo assay, in single point, at 2uM, 72h; a lower Z score goes with more inhibition
# Assay type: functional, Erythrocyte
# Conditions: timepoint 72 hour
Compound,% Inhibition,Z score
CC1=C(c2ccc(Cl)cc2)S(=O)(=O)N=C1N1CCC(C(=O)NCCN(C)C)CC1,-18%,1.96
CC1CCCN(S(=O)(=O)N2CCCC2CC(O)c2ccco2)C1 (stereo unspecified),-8%,0.74
O=C1C[C@H](c2ccccc2F)c2c[nH]nc2N1,5%,-0.54
Cc1ccc(C)n1CC(=O)NCCn1cnc2cc(Cl)ccc21,-8%,0.96
Cc1c(NC(=O)c2ccco2)cccc1-c1nc(C2CC2)n[nH]1,-11%,2.15
Cc1cc(F)cc(C(=O)N2C[C@H](O)[C@@H](N3CCN(C)CC3)C2)c1,-8%,1.41
CC[C@@](NC(=O)c1sc(C)nc1C)(C(N)=O)C(C)C,-2%,0.25
C[C@@H](C(N)=O)N(C)Cc1c(F)cccc1Cl,-16%,2.12
O=S(=O)(c1ccccc1)N1CCN(Cc2c(-c3ccc(Cl)cc3)nc3ccc(-c4cc5ccccc5s4)cn23)CC1,-11%,1.08
Cc1ncc(CNC[C@H]2CN(Cc3ccccc3)CCCO2)n1-c1ccccc1,2%,-0.29
COc1ccc(-c2nc(-c3ccc(Oc4ccc(NC(C)=O)cc4)cc3)no2)c(OC)c1,-10%,1.14
Cc1nc(C)c(CC(=O)NCc2cn3c(C)cccc3n2)s1,-16%,2.92
COCC1(C(=O)N2CCO[C@H](c3ccc(C)cc3C)C2)CCC1,-31%,3.64
COc1ccc(OCc2cc(C(=O)Nc3ccc4c(c3)OCO4)c(C)o2)cc1,-11%,2.12
O=C(N[C@H]1CCN(Cc2cccnc2)C[C@@H]1O)c1ccc2ncsc2c1,3%,-0.38
CCc1cnc(NC(=O)c2ccccc2-c2nnc(C)o2)s1,-2%,0.33
COc1ccc(OC)c(CNC(=O)c2csc(-c3ccnc(N4CCOCC4)c3)n2)c1,-13%,1.7
Cc1noc(Cn2ccc3ccn(Cc4cccnc4)c3c2=O)n1,-14%,1.23
Cc1ccc(C)c(C(=O)c2ccccc2C(=O)NCc2cnn(C)c2)c1,-3%,0.51
Cc1cc2c(cc1S(=O)(=O)N1CCC[C@H]1C(=O)N1CCc3ccccc31)OCC(=O)N2,-7%,0.85
CCCC(CCC)C(=O)Nc1ccccc1C(=O)O,-7%,0.9
CC(C)(C)NC(=O)NCc1cncc(-c2ccsc2)c1,-6%,0.93
O=C(NC[C@H](O)c1ccc(O)cc1)c1cnc(-c2cccnc2)nc1,-2%,0.47
